According to the supplement of paper PMC4604168 (melanoma cell lines):
The other results are listed elsewhere or left out. Repeats are few or missing, and single values can be far off.

Columns and labels:
Experiment in all cases: cell count relative to DMSO control; melanoma cells; higher = more viable cells
Settings in all cases: library dose: standard library concentration; 72 h
[1] = test system: G361
[2] = test system: IPC-298
[3] = test system: IST-MEL1
[4] = test system: LOXIMVI
[5] = test system: MEL-HO
[6] = test system: MeWo
[7] = test system: RPMI7951
[8] = test system: RVH-421
[9] = test system: SkMel28
[10] = test system: SkMel2
[11] = test system: SkMel30
[12] = test system: SkMel5
[13] = test system: UACC257
[14] = test system: UACC62
[15] = test system: WM115
[16] = test system: WM1716
[17] = test system: WM1745
[18] = test system: WM3526
[19] = test system: LB2518-MEL
[20] = test system: MZ2-MEL
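Further: cells treated in 1,536-well plates, then fixed and DAPI-stained, with nuclei counted from automated high-throughput microscope images.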

SMILES	cell count [1] [%]	cell count [2] [%]	cell count [3] [%]	cell count [4] [%]	cell count [5] [%]	cell count [6] [%]	cell count [7] [%]	cell count [8] [%]	cell count [9] [%]	cell count [10] [%]	cell count [11] [%]	cell count [12] [%]	cell count [13] [%]	cell count [14] [%]	cell count [15] [%]	cell count [16] [%]	cell count [17] [%]	cell count [18] [%]	cell count [19] [%]	cell count [20] [%]
Cn1nnc2c(C(N)=O)ncn2c1=O [temozolomide] + CCN(CC)CCCCNc1ncc2cc(-c3cc(OC)cc(OC)c3)c(NC(=O)NC(C)(C)C)nc2n1 [PD173074] (first compound 10 µM, partner dose 0.5 µM)	105	84.8	93.2	91.4	102	95.4	99.9	122	50.6	103	82.6	107	120	84.2	96.1	73.6	73.4	106		
O=C(Nc1cc(C(F)(F)F)cc(C(F)(F)F)c1)c1cc(Cl)ccc1O + COC(=O)c1sccc1S(=O)(=O)Nc1ccc(Nc2ccccc2)cc1OC [GSK0660] (first compound 0.08 µM, partner dose 5 µM)	93.2	95.3	96.8	121	91.3	89.9	104	94.2	88.3	97.6	109	78	81.9	102	101	112		99.2	124	89.8
Cc1cc(N2CCOCC2)cc2[nH]c(-c3c(NC[C@@H](O)c4cccc(Cl)c4)cc[nH]c3=O)nc12 + CC(C)CCN1c2nc(Nc3cc(F)c(O)c(F)c3)ncc2N(C)C(=O)C1C [BID1870] (first compound 1 µM, partner dose 1 µM)	59.5	65.8	88.4	46.2	72.3	70.9	77.9	84.3	50.8	66.5	75.2	58.3	98.9	80.8	105	97.9	48.3	59.7		
O=C(O)[C@@H]1[O][Sb](=[O])([O][Sb]2(=[O])[O][C@H]([C@H](O)CO)[C@H](O)[C@H](C(=O)O)[O]2)[O][C@H]([C@H](O)CO)[C@@H]1O (some centres undefined) [stibogluconate] + O=S(=O)(c1ccccc1)N(CC(F)(F)F)c1ccc(C(O)(C(F)(F)F)C(F)(F)F)cc1 [T0901317] (first compound 10 µM, partner dose 7 µM)	92.1	86.2	111	131	96.3	79.3	86.2	76.8	111	105	100	95	82.9	88.4	87.3	100		87.6		
O=C(O)[C@@H]1[O][Sb](=[O])([O][Sb]2(=[O])[O][C@H]([C@H](O)CO)[C@H](O)[C@H](C(=O)O)[O]2)[O][C@H]([C@H](O)CO)[C@@H]1O (some centres undefined) [stibogluconate] + N#Cc1c(O)c2c(-c3ccc(-c4ccccc4O)cc3)csc2[nH]c1=O [A769662] (first compound 10 µM, partner dose 10 µM)	108	105	127	99.7	92.2	101	117	115	141	111	95.8	94.7	114	102	82.6	108		106		
O=C(Nc1ccccc1)c1cc([N+](=O)[O-])ccc1Cl + Cc1cc([N+](=O)[O-])ccc1NS(=O)(=O)c1cc(Cl)ccc1Cl [FH535] (first compound 10 µM, partner dose 5 µM)	55.8	61.9	53.2	73.1	49.6	76.3	70.1	57.4	54.2	86.2	77.7	65.7	69.2	103	77.5	82.1	69	77.2		
O=C(Nc1cc(C(F)(F)F)cc(C(F)(F)F)c1)c1cc(Cl)ccc1O + COc1ccc2c(c1)CCC1C2CCC2(C)C(NCCCCCCN3C(=O)C=CC3=O)CCC12 [U73122] (first compound 0.08 µM, partner dose 2 µM)	90.2	113	94.8	96.5	112	75.5	47.4	126	92.8	122	98.5	109	81.8	96.4	96.6	122		129		
